# From the supplement of paper PMC3334620
# Over roughly 33,000 sequences, “E-score (-0.5 to 0.5)” has its median near -0.035; the highest 2% begin near 0.34. The list shows a part of the results.
# Biological target: T1, Mot3 (UniProt P54785)
# T1 sequence: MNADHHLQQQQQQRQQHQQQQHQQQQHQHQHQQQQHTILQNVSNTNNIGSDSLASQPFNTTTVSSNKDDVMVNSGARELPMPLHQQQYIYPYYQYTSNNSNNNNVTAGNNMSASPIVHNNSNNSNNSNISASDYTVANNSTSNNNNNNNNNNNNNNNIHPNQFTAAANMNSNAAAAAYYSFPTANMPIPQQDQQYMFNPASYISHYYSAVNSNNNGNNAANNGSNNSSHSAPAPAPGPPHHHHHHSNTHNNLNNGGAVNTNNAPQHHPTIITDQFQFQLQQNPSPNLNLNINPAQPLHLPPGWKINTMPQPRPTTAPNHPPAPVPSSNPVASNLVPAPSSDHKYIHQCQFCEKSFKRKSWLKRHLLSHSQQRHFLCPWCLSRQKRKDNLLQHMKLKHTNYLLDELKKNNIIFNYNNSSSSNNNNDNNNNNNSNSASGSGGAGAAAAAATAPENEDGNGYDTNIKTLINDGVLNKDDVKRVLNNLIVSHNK
# Experiment: PBM E-score (8-mer binding enrichment) (E-score (-0.5 to 0.5)); higher = stronger / more preferred TF binding; most listed sequences are background and not binding sites
# Conditions: protein concentration: 200 nM; construct: GST-full length
# In short: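 E-scores (a modified Wilcoxon-Mann-Whitney statistic) were assigned by the Universal PBM Analysis Suite to every ungapped eight-base word pooled with its reverse complement. The input came from universal all-10-mer Agilent arrays made double-stranded by primer extension and probed with GST-tagged yeast transcription factors at about 100-200 nM. Fluorescent anti-GST detected bound protein, and masliner normalised the scans.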
row,Sequence,PBM E-score
1,CGGTTGAA,0.16
2,AGAGACGC,-0.0853
3,CTCACTTC,-0.318
4,GATTTGGC,-0.177
5,ATGCCCGA,-0.212
6,AGCATAGA,0.0052
7,ACGTCACT,-0.0663
8,CGGCGCAA,-0.0217
9,CCACATAA,-0.0841
10,TAATATTA,0.228
11,CCTCTCGC,-0.121
12,ATCGCAAT,-0.101
13,AGCCACAT,0.0539
14,CGCGACAA,-0.0189
15,AACAGTGT,0.0697
16,CACAAGCC,0.0891
17,CGACGATC,-0.201
18,CCCATTTA,0.00011
19,ATGATCAT,-0.0174
20,AAAGGAGG,0.0888
21,CAATAATC,-6e-05
22,CGAGGGCC,-0.158

row,Sequence,PBM E-score
1,GAAGTCTC,-0.125
2,CGGAAACA,0.0963
3,GATACACC,-0.0218
4,AGGCCGGA,-0.14
5,CATAGACG,-0.014
6,ACGAACGT,-0.0366
7,GCTTAAGC,0.101
8,CTCGGATA,-0.143
9,CTTCTTTC,-0.084
10,GCGCGAGA,-0.21
11,CGTCAAGA,0.057
12,TAGACCTA,-0.0264
13,CGTAAACC,0.0691
14,ATGGGGTC,-0.133
15,TGAGGTAA,0.0813
16,CTAGGTGA,-0.153
17,CAGTGCAG,-0.113
18,ACGCACGC,0.258
19,CGTAGCCA,-0.208
20,ACTGAAGG,0.259
21,AAACCTGA,-0.172
22,GCGCTTGA,-0.0372

row,Sequence,PBM E-score
1,ATGTACAT,0.378
2,AGCCGTCA,-0.239
3,CGTACCAG,0.00438
4,TTGGACAA,0.0838
5,ATGGTAAT,0.129
6,AGATCGTA,-0.0718
7,AACCATGG,-0.146
8,AGCCACGG,-0.23
9,ATTCGAGG,-0.135
10,CTCAACAA,0.238
11,CCAGAGGG,-0.161
12,ATCTTTGG,0.0243
13,GATCCTAA,-0.149
14,AGTCTAGC,-0.344
15,GACATCCC,-2e-05
16,AATATAAA,0.103
17,ATATTACA,0.332
18,GAATCGTC,-0.134
19,CTTGGTAA,0.184
20,CGGTTGGC,-0.12
21,GGCAGAAC,-0.0817
22,ACCGCGCT,-0.13

row,Sequence,PBM E-score
1,ACTGCGGA,-0.066
2,ACTCTCGC,-0.102
3,CCGACTGC,-0.15
4,ACTCAGCT,-0.172
5,ATCTGCAA,-0.0592
6,AGGAACGA,0.44
7,CCTGTAAA,0.335
8,CCCTGAAA,-0.0551
9,AAAGCCAA,-0.0602
10,AGATATGG,-0.259
11,AGTTTCCC,-0.306
12,CCACGAGC,-0.167
13,ACTTTTAA,0.0373
14,CGCGAAGA,-0.0388
15,GATCGGGC,-0.22
16,GGCCCGAA,-0.201
17,ATGGGTTA,0.0948
18,CCGCTTCA,-0.167
19,AGAGAGAT,-0.0925
20,AGCACGCC,-0.114
